Some of the results follow. These are noisy estimates, calculated here from bound and input reads.
target: T1, Pho4 (S. cerevisiae) (UniProt P07270); assay: relative binding free energy (BET-seq); higher = weaker binding; details: reference: library average
T1 sequence: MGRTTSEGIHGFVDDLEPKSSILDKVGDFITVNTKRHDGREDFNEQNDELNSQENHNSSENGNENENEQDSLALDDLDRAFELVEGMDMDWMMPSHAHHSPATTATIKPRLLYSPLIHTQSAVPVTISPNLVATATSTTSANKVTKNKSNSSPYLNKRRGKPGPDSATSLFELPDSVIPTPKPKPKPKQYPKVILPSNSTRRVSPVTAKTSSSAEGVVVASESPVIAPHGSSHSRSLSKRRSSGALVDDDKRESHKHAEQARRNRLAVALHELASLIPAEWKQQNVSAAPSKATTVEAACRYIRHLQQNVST

Row | Sequence | relative binding free energy [kcal/mol]
1 | GTGTTCACGTGGGGCC | 0.13
2 | TCACTCACGTGTAGGG | 0.2
3 | TCATTCACGTGTTTAT | 0.36
4 | GGATGCACGTGCATTT | 0.06
5 | GATTTCACGTGGTACT | 0.19
6 | TCCTTCACGTGTGGTT | 0.35
7 | GGTTCCACGTGTGCGG | 0.02
8 | ATAGTCACGTGGCGAG | -0.02
9 | TTATGCACGTGGTGGG | -0.03
10 | AAGTGCACGTGAGGAT | 0.39
11 | AGGTACACGTGAAGGG | 0.27
12 | TTTATCACGTGAGGTG | 0.37
13 | TCTTGCACGTGGATGT | -0.07
14 | AGTAACACGTGAAGTA | 0.18
15 | TGGGGCACGTGATAAT | 0
16 | ATCAGCACGTGAGTTA | 0.15
17 | AATGACACGTGCGTGA | 0.08
18 | CATCTCACGTGTGTTG | 0.2
19 | TGTTGCACGTGATCTA | 0.05
20 | AGAAGCACGTGTTTTA | -0.14
21 | TGTAGCACGTGGGGAG | -0.19
22 | TAGGGCACGTGCGGTA | -0.15
23 | GTGACCACGTGTTCGG | 0.05
24 | GTTCTCACGTGGGTGT | 0.11
25 | AGGGGCACGTGGTATC | -0.24

Row | Sequence | relative binding free energy [kcal/mol]
26 | CGTGACACGTGGGCGG | -0.09
27 | GGTGTCACGTGATTGG | 0.36
28 | GTTGGCACGTGCGGAT | -0.19
29 | ACTGGCACGTGGACGG | 0
30 | CTGGTCACGTGGATGA | 0.1
31 | CGGGCCACGTGCAGGG | -0.06
32 | GGACGCACGTGATTGG | 0.02
33 | TTTGTCACGTGAGGAA | 0.31
34 | TATGACACGTGCGGGC | -0.03
35 | GGCGGCACGTGTAGGA | -0.02
36 | AACTGCACGTGGGGGT | -0.25
37 | TTGGGCACGTGTAACA | 0.05
38 | GCGGGCACGTGGGTTA | -0.08
39 | TCGTGCACGTGGGGGT | -0.18
40 | CAGTTCACGTGTATGT | 0.35
41 | TGTAGCACGTGGCGCT | -0.27
42 | TAGGGCACGTGTGACT | -0.05
43 | TCTTGCACGTGGGGAG | -0.19
44 | GTTATCACGTGTGTGA | 0.32
45 | GGTATCACGTGGCCGG | 0.08
46 | CTCTTCACGTGTTTTT | 0.3
47 | TTGTCCACGTGAGATG | 0.42
48 | GGAGGCACGTGATTTA | -0.04
49 | AAAGGCACGTGAAATG | 0.18
50 | TTAGTCACGTGTTGCC | 0.1

Row | Sequence | relative binding free energy [kcal/mol]
51 | AATGTCACGTGAGTAG | 0.25
52 | CTCATCACGTGTGGTG | 0.33
53 | TATCTCACGTGTTGGG | 0.18
54 | GGGTTCACGTGGCGGG | 0.24
55 | TTTATCACGTGTTCGG | 0.19
56 | CTTTGCACGTGTAGTG | 0.05
57 | CGGCTCACGTGGGGGC | -0.01
58 | TTGTGCACGTGCACTG | -0.16
59 | AAGTTCACGTGTGGGC | 0.22
60 | CAAGTCACGTGTTGTT | 0.2
61 | GTTTCCACGTGGAGGG | 0.02
62 | TTTATCACGTGGGGAA | -0.04
63 | GTGTACACGTGAGGAA | 0.29
64 | TGCTTCACGTGGGTAG | 0.05
65 | GCGGGCACGTGGGATG | -0.14
66 | GATGTCACGTGTATTA | 0.18
67 | GGATGCACGTGTAGCG | -0.07
68 | GTAGTCACGTGTATTT | 0.19
69 | TCAATCACGTGTATGA | 0.11
70 | GATTTCACGTGAAATG | 0.32
71 | TGTGCCACGTGCGAGG | -0.17
72 | TAGTTCACGTGGGCTT | 0.24
73 | CAAAGCACGTGGGTGG | -0.31
74 | AAATACACGTGAGTGT | 0.21
75 | GGGAGCACGTGACGTA | 0.03

Row | Sequence | relative binding free energy [kcal/mol]
76 | CGTTACACGTGATGGT | 0.1
77 | CTTCGCACGTGGGGTG | -0.34
78 | AATGACACGTGGGATA | -0.07
79 | AAGTGCACGTGGCGGT | -0.17
80 | GGACGCACGTGTAAGT | 0.1
81 | TTCTTCACGTGGGCTG | 0.21
82 | TTCTGCACGTGGAGGC | 0.1
83 | CTTTTCACGTGTCTGG | 0.27
84 | TAGTGCACGTGGTCGT | -0.11
85 | GTGTGCACGTGAGCCG | 0.19
86 | TTGGGCACGTGTTCGA | -0.09
87 | AGGGCCACGTGGCGGG | -0.26
88 | ACCGTCACGTGGTGTG | 0.01
89 | GTATACACGTGTGTGC | 0.01
90 | GCGGGCACGTGCAGAG | 0.04
91 | AATTACACGTGGTTCG | 0.02
92 | GGAGGCACGTGTTAGT | -0.08
93 | CATGGCACGTGGCTGG | -0.26
94 | ATACTCACGTGCGGGG | 0.18
95 | ATGATCACGTGTCTTT | 0.12
96 | ATGTTCACGTGGGACT | 0.15
97 | ATGTACACGTGTGGGT | 0.16
98 | TCGTTCACGTGTCTTT | 0.39
99 | TGGGTCACGTGCAATG | 0.15
100 | TCTTGCACGTGAGAGG | 0.22

Row | Sequence | relative binding free energy [kcal/mol]
101 | GATGCCACGTGAGAGG | 0.3
102 | TGTGGCACGTGTTCAG | -0.06
103 | AATGTCACGTGACGAG | 0.37
104 | TTTTACACGTGCTGTG | 0.24
105 | GAGGGCACGTGTATTG | -0.15
106 | TTTTTCACGTGAGCAA | 0.32
107 | TGGAACACGTGGAGTG | 0.02
108 | TAAATCACGTGGGTTC | -0.05
109 | TGTTCCACGTGGAGTT | 0.06
110 | TGAGTCACGTGGACTT | 0.11
111 | ATAGTCACGTGGGGTC | -0.01
112 | AGCAGCACGTGGGGCT | -0.12
113 | TCGGGCACGTGTGCTG | -0.09
114 | GGGTCCACGTGGTAAG | -0.01
115 | TTGTTCACGTGTGTAT | 0.29
116 | ATAGTCACGTGCAGGG | 0.02
117 | CTTAGCACGTGGTGGA | -0.11
118 | TAGGACACGTGGGGTG | -0.18
119 | CCCGGCACGTGGTTGG | -0.05
120 | CTTGGCACGTGAGGTG | 0.18
121 | TTAGGCACGTGCGGAT | -0.17
122 | AGCTGCACGTGAGGAG | 0.28
123 | AGAAGCACGTGGCTGG | -0.11
124 | ATTGTCACGTGGAAGG | 0.28
125 | ACGTTCACGTGGGAAT | 0.13

Row | Sequence | relative binding free energy [kcal/mol]
126 | ATCTTCACGTGGTGGC | 0.24
127 | TGGTTCACGTGGGACA | 0.08
128 | GGATGCACGTGCTGGA | -0.06
129 | TATTACACGTGGTGCG | -0.13
130 | TCTGTCACGTGTACGG | 0.02
131 | AATCACACGTGGTTTG | 0.01
132 | ATTTGCACGTGGGGTC | -0.12
133 | AGGTACACGTGGAGAG | 0.19
134 | TGAGGCACGTGGGAGC | -0.14
135 | GGTTTCACGTGGTCGA | 0.17
136 | AATGGCACGTGGTGTA | -0.12
137 | AGGAACACGTGTTGGT | 0.12
138 | CGTGGCACGTGGTGAG | -0.11
139 | CTGAGCACGTGGCAGG | -0.12
140 | CAGAGCACGTGAGGGG | 0.18
141 | TGGTGCACGTGCTGTT | -0.11
142 | AGTTACACGTGAGATA | 0.33
143 | ATGGTCACGTGCATGT | -0.02
144 | GGGCTCACGTGGCTTG | 0.28
145 | GGAATCACGTGCGTGT | 0.06
146 | ACTGTCACGTGCTGTG | 0.05

— the BET-seq Pho4 binding data (Le et al. 2018)
